{"source": "PubChem BioAssay AID1508642", "about": "(National Center for Advancing Translational Sciences (NCATS), 2021)", "note": "In all, about 43,000 compounds went through this assay and about 200 (0.47%) were called active. Roughly 12% stayed inconclusive and do not appear here. Calls come from the whole dose curve; as a rule, active = well fitted cell-killing curve with a large enough effect; inconclusive = small, poorly fitted or top-dose-only effect, or effect the other way; inactive = flat fitted curve, though single readings scatter. This is one part of the list. % is set by controls: 0 for no effect and ±100 for the full control effect."}
{"experiment": "Cell viability qHTS assay in S16 Pmp22-F2sN cells; note: nearly all actives have a fitted effect of over 65% in size", "settings": "S16 Pmp22-F2sN Schwann cells viability, CellTiter-Glo, 24 h; series mostly up to 57.5 µM; activity change, negative = cytotoxicity: at the top concentration", "procedure,_shortened": "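Viability was measured by CellTiter-Glo luminescence (15 min, room temperature). This followed 24 h at 37 °C of compound exposure (23 nL pin transfer) in S16 Pmp22-F2sN Schwann cells, 500-1,000 per well.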"}
{"smiles": "CCCCN(CCCC)C(=O)C1CCN(S(=O)(=O)c2cccc3nsnc23)CC1", "activity change, negative = cytotoxicity": "inactive: 10.9%"}
{"smiles": "CCN(Cc1ccccc1)c1ncnc2c1nnn2C", "activity change, negative = cytotoxicity": "inactive: -11.5%"}
{"smiles": "COc1ccc(OC)c(/C=C/C(=O)Nc2ccc(C(=O)OCCC(C)C)cc2)c1", "activity change, negative = cytotoxicity": "inactive: 11.4%"}
{"smiles": "Cc1ccccc1CN1C(=O)c2ccccc2Sc2ccc(C(=O)NC3CCCC3)cc21", "activity change, negative = cytotoxicity": "inactive: -5.91%"}
{"smiles": "COc1cccc(-n2c(-c3cccc(F)c3)nc3c(cnn3-c3ccc(C)cc3)c2=O)c1", "activity change, negative = cytotoxicity": "inactive: 10.1%"}
{"smiles": "COc1ccc(N2CCN(c3oc(-c4ccc(COc5cccc(C)c5)o4)nc3C#N)CC2)cc1", "activity change, negative = cytotoxicity": "inactive: -6.77%"}
{"smiles": "Cc1ccc(NC(=O)CN(C)S(=O)(=O)c2ccc3[nH]c4c(c3c2)CCCC4)c(Cl)c1", "activity change, negative = cytotoxicity": "inactive: -2.33%"}
{"smiles": "COc1ccc(CC(=O)NCCc2csc3nc(-c4ccccc4F)nn23)cc1", "activity change, negative = cytotoxicity": "inactive: 13.4%"}
{"smiles": "CCCN(C(=O)CCc1nc(-c2ccc(OC)cc2)no1)c1ccccc1F", "activity change, negative = cytotoxicity": "inactive: 0.0244%"}
{"smiles": "CSc1ncc(C(=O)N2CCN(c3cc(Cl)ccc3C)CC2)c(C)n1", "activity change, negative = cytotoxicity": "inactive: 4.02%"}
{"smiles": "Cc1oc(-c2ccccc2F)nc1CS(=O)(=O)CC(=O)NCCc1ccc(Cl)cc1", "activity change, negative = cytotoxicity": "inactive: 13.7%"}
{"smiles": "COc1cc(-c2nc(Cn3nnc(C(=O)Nc4ccc(C)cc4C)c3C)c(C)o2)cc(OC)c1OC", "activity change, negative = cytotoxicity": "inactive: 19.1%"}
{"smiles": "CCN(CCCNC(=O)c1cc2c(Cl)nc3ccccc3c2s1)Cc1ccccc1", "activity change, negative = cytotoxicity": "inactive: -26.4%"}
{"smiles": "Cc1ccc(C)c2sc(N3CCN(C(=O)C(C)(C)C)CC3)nc12", "activity change, negative = cytotoxicity": "inactive: -0.583%"}
{"smiles": "CC1=C(C(=O)Nc2ccc(C)cc2Cl)C2(CCCCCC2)OC1=O", "activity change, negative = cytotoxicity": "inactive: -6.37%"}
{"smiles": "CCC(=O)c1cc2c(cc1NC(=O)c1ccccc1F)OCCO2", "activity change, negative = cytotoxicity": "inactive: 9.85%"}
{"smiles": "CCOc1ccc(CCNC(=O)c2ccc(-n3c(C)cc4c3CCC(C)C4)cc2)cc1OCC", "note": "(stereo unspecified)", "activity change, negative = cytotoxicity": "inactive: -0.279%"}
{"smiles": "COc1ccc(NC(=O)Cn2ncc3c2-c2ccccc2OC3)cc1Cl", "activity change, negative = cytotoxicity": "inactive: -2.53%"}
{"smiles": "COc1ccccc1C(=O)Nc1ccc(OCc2cc(=O)n3ccsc3n2)cc1", "activity change, negative = cytotoxicity": "inactive: 19.1%"}
{"smiles": "O=C(CSc1nc2c([nH]c3ccccc32)c(=O)n1-c1ccccc1)Nc1ccc2c(c1)OCCO2", "activity change, negative = cytotoxicity": "inactive: -16.7%"}
{"smiles": "Cc1ccc(-c2noc(-c3ccccc3NC(=O)C3CC(=O)N(c4ccccc4C)C3)n2)cc1", "note": "(stereo unspecified)", "activity change, negative = cytotoxicity": "inactive: 13.5%"}
{"smiles": "O=C(NCCc1nc2ccccc2n1Cc1ccc(Cl)cc1Cl)c1ccco1", "activity change, negative = cytotoxicity": "inactive: 5.18%"}
{"smiles": "CCn1ccc2c(OCC(=O)NCc3ccc(F)cc3)cccc2c1=O", "activity change, negative = cytotoxicity": "inactive: 4.21%"}
{"smiles": "N#Cc1ccc(C(=O)Nc2ccc3c(c2)N(C2CCCC2)C(=O)c2ccccc2S3)cc1", "activity change, negative = cytotoxicity": "inactive: -14.8%"}
{"smiles": "CC(C)Sc1ncc(Cl)c(C(=O)N(Cc2ccc(N(C)C)cc2)C2CCS(=O)(=O)C2)n1", "note": "(stereo unspecified)", "activity change, negative = cytotoxicity": "inactive: -3.72%"}
{"smiles": "CCc1nn(CC(=O)Nc2ccc(N(CC)CC)cc2C)c(=O)c2cc3sccc3n12", "activity change, negative = cytotoxicity": "inactive: 10.4%"}
{"smiles": "CCOc1ccc(C2C(C(=O)Nc3ccccc3)=C(C)Nc3nc(SCc4cc(C)ccc4C)nn32)cc1", "note": "(stereo unspecified)", "activity change, negative = cytotoxicity": "inactive: 7.33%"}
{"smiles": "Cc1cc(C)c2nc(N(Cc3cccnc3)C(=O)c3cccs3)sc2c1", "activity change, negative = cytotoxicity": "inactive: -27.6%"}
{"smiles": "CC(C)Cn1c(=O)c2ccccc2n2c(CCC(=O)NC(C)c3ccccc3)nnc12", "note": "(stereo unspecified)", "activity change, negative = cytotoxicity": "inactive: 12.8%"}
{"smiles": "CN(C)c1ccc(/C=C(\\C#N)c2nc(-c3ccc(Cl)c(Cl)c3)cs2)cc1", "activity change, negative = cytotoxicity": "inactive: 3.58%"}
{"smiles": "COc1cc(NC(=O)COCc2cc(-c3ccc4c(c3)OCO4)on2)cc(OC)c1", "activity change, negative = cytotoxicity": "inactive: 27%"}
{"smiles": "CCN(CC)C(=O)c1sc2c(c1C)c(=O)n(-c1ccc(OC)cc1OC)c(=O)n2CC(=O)c1ccc(Cl)cc1", "activity change, negative = cytotoxicity": "inactive: -2.87%"}
{"smiles": "CCn1cc(S(=O)(=O)c2ccccc2)c(=O)c2cc(F)c(N3CCN(c4ccccc4)CC3)cc21", "activity change, negative = cytotoxicity": "inactive: -14.7%"}
{"smiles": "COc1cc(NC(=O)c2oc3c(c2C)-c2nn(Cc4cccc(Cl)c4)cc2CC3)cc(OC)c1", "activity change, negative = cytotoxicity": "inactive: 15%"}
{"smiles": "Cc1ccc(-n2c(=O)c3c(cnn3C)n(Cc3ccccc3F)c2=O)cc1", "activity change, negative = cytotoxicity": "inactive: 0.462%"}
{"smiles": "Cn1c2ccccc2c2cnn(CC(=O)Nc3ccccc3C(F)(F)F)c(=O)c21", "activity change, negative = cytotoxicity": "inactive: 11.8%"}
{"smiles": "O=C(C1CCN(S(=O)(=O)c2ccc(Br)s2)CC1)N1CCN(c2ccccc2)CC1", "activity change, negative = cytotoxicity": "inactive: 1.3%"}
{"smiles": "CCc1ccc(-c2nn(CC(=O)NCc3ccccc3)c3c2cnc2ccc(F)cc23)cc1", "activity change, negative = cytotoxicity": "inactive: -3.11%"}
{"smiles": "COc1ccc(OCC(=O)NCc2ccc3c(c2)CCN3C(=O)c2ccc(F)cc2)cc1", "activity change, negative = cytotoxicity": "inactive: -15.4%"}
{"smiles": "COc1ccc(CCN2C(=O)NC(NS(=O)(=O)c3ccc(NC(C)=O)cc3)(C(F)(F)F)C2=O)cc1OC", "note": "(stereo unspecified)", "activity change, negative = cytotoxicity": "inactive: 1.73%"}
{"smiles": "CC(=O)Nc1ccc2nc(SCCOc3cc(C)cc(C)c3)sc2c1", "activity change, negative = cytotoxicity": "inactive: -20.2%"}
{"smiles": "COC(=O)c1ccc(OCC2c3cc(OC)c(OC)cc3CCN2C(=O)Cc2ccccc2)cc1", "note": "(stereo unspecified)", "activity change, negative = cytotoxicity": "inactive: 7.83%"}
{"smiles": "Cn1cnnc1SCC(=O)Nc1ccc(C#N)cc1", "activity change, negative = cytotoxicity": "inactive: 2.43%"}
{"smiles": "CN(CC(=O)NCc1ccccc1)S(=O)(=O)c1ccc2[nH]c3c(c2c1)CCCC3", "activity change, negative = cytotoxicity": "inactive: 2.75%"}
{"smiles": "COc1ccc(-c2[nH]c(-c3cccc(OC)c3)nc2SCC(=O)NC2CCCC2)cc1", "activity change, negative = cytotoxicity": "inactive: -10.3%"}
{"smiles": "CC(C)(C)C1CCc2c(sc(NC(=O)c3ccc(Cl)cc3)c2C(=O)NCc2ccco2)C1", "note": "(stereo unspecified)", "activity change, negative = cytotoxicity": "inactive: 16.2%"}
{"smiles": "COc1ccccc1N1CCN(c2ncnc3c2cnn3-c2cccc(Cl)c2)CC1", "activity change, negative = cytotoxicity": "inactive: 14.8%"}
{"smiles": "COc1ccc(-c2cn3nc(N4CCCC(C(=O)Nc5cc(C)cc(C)c5)C4)sc3n2)cc1", "note": "(stereo unspecified)", "activity change, negative = cytotoxicity": "inactive: 13.6%"}
{"smiles": "CCc1ccccc1NC(=O)C1(C)Cc2ccccc2C(=O)O1", "note": "(stereo unspecified)", "activity change, negative = cytotoxicity": "inactive: 14.6%"}
{"smiles": "CCOC(=O)CSc1nc2ccc(NC(=O)c3ccc(Cl)cc3)cc2s1", "activity change, negative = cytotoxicity": "inactive: 7.59%"}
{"smiles": "COc1cccc(-c2nc(CS(=O)(=O)CC(=O)Nc3cccc(C(C)=O)c3)c(C)o2)c1", "activity change, negative = cytotoxicity": "inactive: -19.6%"}
{"smiles": "COC(=O)c1ccc(NC(=O)C2CCN(c3ncnc4c3nc3n4CCCCC3)CC2)cc1", "activity change, negative = cytotoxicity": "inactive: 3.18%"}
{"smiles": "COc1ccc(CCNc2ncnc3c2c(-c2ccccc2)cn3-c2ccc(Cl)cc2)cc1OC", "activity change, negative = cytotoxicity": "inactive: -21%"}
{"smiles": "CCOC(=O)c1ccccc1NC(=O)CSc1nnc(CC)n2c1cc1occc12", "activity change, negative = cytotoxicity": "inactive: -2.04%"}
{"smiles": "COc1ccc(C)cc1NC(=O)c1cc(S(=O)(=O)N2CCC(C)CC2)ccc1F", "activity change, negative = cytotoxicity": "inactive: 10.4%"}
{"smiles": "Fc1ccc(-c2cc3ncc4c(n3n2)-c2cc(Cl)ccc2OC4)cc1", "activity change, negative = cytotoxicity": "inactive: -0.435%"}
{"smiles": "Cc1cc(C)cc(NC(=O)CSc2c(C(C)C)cnc3c2c(=O)n(C)c(=O)n3C)c1", "activity change, negative = cytotoxicity": "inactive: -3.38%"}
{"smiles": "Cc1cc(C)cc(Nc2cc(C(=O)NC3CCCCC3)c3ccccc3n2)c1", "activity change, negative = cytotoxicity": "inactive: 12.8%"}
{"smiles": "Cc1oc(-c2ccccc2F)nc1Cn1c(SCc2cccc(C(F)(F)F)c2)nc2ccncc21", "activity change, negative = cytotoxicity": "inactive: 23%"}
{"smiles": "CCc1ccccc1NC(=O)c1cc(-c2ccc(Cl)s2)nc2ccccc12", "activity change, negative = cytotoxicity": "inactive: -24.5%"}
{"smiles": "O=C(Nc1ccccc1F)c1cnc(N2CCCCC2)c2ccccc12", "activity change, negative = cytotoxicity": "inactive: 2.06%"}
